Laboratory results reported in patent US6730699B2, “Water soluble paclitaxel derivatives” (priority 2001, dated 2004).
Read-outs that look alike come from different tables or passages of the source.

Assays:
bovine brain tubulin = conditions: 1 μM, 32° C., 1.0 mM GTP, 1 mg/ml tubulin
MCa-4 mammary carcinoma [1] = conditions: single dose 40 mg/kg, tumors 8 mm at treatment
[2] = test system: rat mammary adenocarcinoma 13762F; conditions: single dose 20 mg equivalent paclitaxel/kg
OCA-1 ovarian carcinoma = conditions: paclitaxel alone or with PG, same dose as PG-TXL
B16 melanoma cells [3] = assay: cells; conditions: Mus musculus, B16, 40 h
FSa-II fibrous sarcoma = conditions: for Time to Grow 500-2000 mm^3: mean ± SD
HCa-I hepatocarcinoma = conditions: for Time to Grow 500-2000 mm^3: mean ± SD
MCa-4 mammary carcinoma [4] = conditions: for Time to Grow 500-2000 mm^3: mean ± SD
MCa-4 mammary carcinoma [5] = assay: Whole-body gamma scintigraphy; conditions: i.v. via tail vein, MCa-4 tumor 12 mm
B16 melanoma cells [6] = conditions: 40-h incubation, cell count

For `CC(=O)O[C@H]1C(=O)[C@@]2(C)[C@H]([C@H](OC(=O)c3ccccc3)[C@]3(O)C[C@H](OC(=O)[C@H](O)[C@@H](NC(=O)c4ccccc4)c4ccccc4)C(C)=C1C3(C)C)[C@]1(OC(C)=O)CO[C@@H]1C[C@@H]2O` [Paclitaxel, paclitaxel], the “tubulin polymerization (absorbance at 340 nm)” value (bovine brain tubulin) was “clear increase in absorbance”, the “histological changes in tumor” value (OCA-1 tumors; 80 mg/kg, especially day 1) was “marked nuclear fragmentation with formation of apoptotic bodies” and the “time for the tumor to reach 12 mm in diameter” value (“time for the tumor” for short) (MCa-4 mammary carcinoma [1]) was 9.4 days. The “tumor growth delay (2,000 to 10,000 mm^3 vs saline)” value [2] was 5 days, the tumor growth (OCA-1 ovarian carcinoma) was “tumors regrew to levels comparable to an untreated control group after ten days” and the IC50 (B16 melanoma cells [3]) was 15 nM. The “AGD (absolute growth delay)” value (FSa-II fibrous sarcoma; 80 mg/kg) was 2.3 days, the “Time to Grow 500-2000 mm^3” value (FSa-II fibrous sarcoma; 80 mg/kg single i.v.) was 4.2 ± 0.3 (6) days and the “AGD (absolute growth delay)” value (HCa-I hepatocarcinoma; 80 mg/kg) was -0.9 days. For the same compound, the “Time to Grow 500-2000 mm^3” value (HCa-I hepatocarcinoma; 80 mg/kg single i.v.) was 6.4 ± 0.5 (5) days, the “AGD (absolute growth delay)” value (MCa-4 mammary carcinoma [4]; 40 mg/kg) was 4.2 days and the “Time to Grow 500-2000 mm^3” value (MCa-4 mammary carcinoma [4]; 40 mg/kg single i.v.) was 9.0 ± 0.6 (4) days. The “AGD (absolute growth delay)” value (MCa-4 mammary carcinoma [4]; 60 mg/kg) was 4.5 days and the “Time to Grow 500-2000 mm^3” value (MCa-4 mammary carcinoma [4]; 60 mg/kg single i.v.) was 9.3 ± 0.3 (5) days.
With `O=C([O-])CN(CCN(CC(=O)[O-])CC(=O)[O-])CCN(CC(=O)[O-])CC(=O)[O-].[111In+3].[H+].[H+]` [^111In-DTPA] the “tumor uptake by gamma scintigraphy” value (MCa-4 mammary carcinoma [5]) was “negligible retention in the tumor”.
With Poly-Glutamic Acid-Paclitaxel [PG-TXL] the “histological changes in tumor” value (OCA-1 tumors; 160 mg equivalent paclitaxel/kg) was “mild increase in mitotically arrested cells and apoptotic cells”, the “histological changes in tumor” value (OCA-1 tumors; 160 mg equivalent paclitaxel/kg, by 96 h) was “extensive edema and necrosis” and the “AGD (absolute growth delay)” value (FSa-II fibrous sarcoma; 80 mg/kg) was 1.9 days. The “Time to Grow 500-2000 mm^3” value (FSa-II fibrous sarcoma; 80 mg/kg single i.v.) was 3.8 ± 0.4 (6) days, the “AGD (absolute growth delay)” value (FSa-II fibrous sarcoma; 160 mg/kg) was 3.2 days and the “Time to Grow 500-2000 mm^3” value (FSa-II fibrous sarcoma; 160 mg/kg single i.v.) was 5.1 ± 0.3 (13) days. For the same compound, the “AGD (absolute growth delay)” value (HCa-I hepatocarcinoma; 40 mg/kg) was 0.9 days, the “Time to Grow 500-2000 mm^3” value (HCa-I hepatocarcinoma; 40 mg/kg single i.v.) was 8.2 ± 0.7 (5) days and the “AGD (absolute growth delay)” value (HCa-I hepatocarcinoma; 80 mg/kg) was 1.3 days. For the same compound, the “Time to Grow 500-2000 mm^3” value (HCa-I hepatocarcinoma; 80 mg/kg single i.v.) was 8.6 ± 0.2 (5) days, the “AGD (absolute growth delay)” value (HCa-I hepatocarcinoma; 160 mg/kg) was 3.7 days and the “Time to Grow 500-2000 mm^3” value (HCa-I hepatocarcinoma; 160 mg/kg single i.v.) was 11.0 ± 0.8 (4) days. The “AGD (absolute growth delay)” value (MCa-4 mammary carcinoma [4]; 40 mg/kg) was 3.8 days, the “Time to Grow 500-2000 mm^3” value (MCa-4 mammary carcinoma [4]; 40 mg/kg single i.v.) was 8.6 ± 1.2 (4) days and the “AGD (absolute growth delay)” value (MCa-4 mammary carcinoma [4]; 60 mg/kg) was 9.4 days. For the same compound, the “Time to Grow 500-2000 mm^3” value (MCa-4 mammary carcinoma [4]; 60 mg/kg single i.v.) was 14.2 ± 1.1 (5) days, the “AGD (absolute growth delay)” value (MCa-4 mammary carcinoma [4]; 120 mg/kg) was 39.6 days and the “Time to Grow 500-2000 mm^3” value (MCa-4 mammary carcinoma [4]; 120 mg/kg single i.v.) was 44.4 ± 2.9 (5) days.
“diethylenetriaminepentaacetic acid-paclitaxel [DTPA-paclitaxel]” was tested, and the “time for the tumor” value (MCa-4 mammary carcinoma [1]) was 12.1 days and the IC50 (B16 melanoma cells [6]) was 7.5 nM.
In the case of “polyethylene glycol-paclitaxel [PEG-paclitaxel]”, the “time for the tumor” value (MCa-4 mammary carcinoma [1]) is reported as 8.5 days.
